Reference: the supplement of paper PMC8728848
The other results are listed elsewhere or left out.

How the values were obtained:
Assay in all cases: glycan array binding signal (z-score within array); higher = stronger binding
Details in all cases: glycan notation: IUPAC condensed, linker removed
Gal3S4S(b1-4)GlcNAc = target: Gal3S4S(b1-4)GlcNAc
In short: (§1)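 Negative Z-scores can be read as non-binding. The Z-score is calculated within each array and then averaged across arrays of one protein sequence at different concentrations or buffers and across linkers. Arrays, 3228 in all, were curated from the Consortium for Functional Glycomics database and kept only where the protein sequence was available.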

Gal3S6S(b1-4)GlcNAc = target: Gal3S6S(b1-4)GlcNAc
In short: as §1

Gal3S6S(b1-4)GlcNAc6S = target: Gal3S6S(b1-4)GlcNAc6S
In short: as §1

Gal4S(b1-4)GlcNAc = target: Gal4S(b1-4)GlcNAc
In short: as §1

Gal4S6S(b1-4)GlcNAc = target: Gal4S6S(b1-4)GlcNAc
In short: as §1

Gal6P(b1-4)GlcNAc = target: Gal6P(b1-4)GlcNAc
In short: as §1

Gal6S(b1-3)GlcNAc = target: Gal6S(b1-3)GlcNAc
In short: as §1

Gal6S(b1-3)GlcNAc6S = target: Gal6S(b1-3)GlcNAc6S
In short: as §1

Gal6S(b1-4)Glc = target: Gal6S(b1-4)Glc
In short: as §1

Gal6S(b1-4)Glc6S = target: Gal6S(b1-4)Glc6S
In short: as §1

Gal6S(b1-4)GlcNAc = target: Gal6S(b1-4)GlcNAc
In short: as §1

Gal6S(b1-4)GlcNAc6S = target: Gal6S(b1-4)GlcNAc6S
In short: as §1

GalNAc(a1-3)Gal = target: GalNAc(a1-3)Gal
In short: as §1

GalNAc(a1-3)GalNAc = target: GalNAc(a1-3)GalNAc
In short: as §1

[1] = target: GalNAc(a1-3)GalNAc(b1-3)Gal(a1-4)Gal(b1-4)Glc
In short: as §1

[2] = target: GalNAc(a1-3)GalNAc(b1-3)Gal(a1-4)Gal(b1-4)GlcNAc
In short: as §1

GalNAc(b1-3)Gal = target: GalNAc(b1-3)Gal
In short: as §1

[3] = target: GalNAc(b1-3)Gal(a1-4)Gal(b1-4)GlcNAc
In short: as §1

[4] = target: GalNAc(b1-3)Gal(a1-4)Gal(b1-4)GlcNAc(b1-3)Gal(b1-4)Glc
In short: as §1

[5] = target: GalNAc(b1-3)Gal(a1-6)Gal(b1-4)Glc
In short: as §1

GalNAc(b1-3)GalNAc = target: GalNAc(b1-3)GalNAc
In short: as §1

GalNAc(b1-4)Gal(b1-4)Glc = target: GalNAc(b1-4)Gal(b1-4)Glc
In short: as §1

GalNAc(b1-4)GlcNAc = target: GalNAc(b1-4)GlcNAc
In short: as §1

[6] = target: GalNAc(b1-4)GlcNAc(b1-2)Man(a1-3)[GalNAc(b1-4)GlcNAc(b1-2)Man(a1-6)]Man(b1-4)GlcNAc(b1-4)GlcNAc
In short: as §1

GalNAc(b1-4)GlcNAc6S = target: GalNAc(b1-4)GlcNAc6S
In short: as §1

GalNAc(b1-6)GalNAc = target: GalNAc(b1-6)GalNAc
In short: as §1

GalNAc3S(b1-4)GlcNAc = target: GalNAc3S(b1-4)GlcNAc
In short: as §1

GalNAc3S(b1-4)GlcNAc3S = target: GalNAc3S(b1-4)GlcNAc3S
In short: as §1

GalNAc4S6S(b1-4)GlcNAc = target: GalNAc4S6S(b1-4)GlcNAc
In short: as §1

GalNAc6S(b1-4)GlcNAc = target: GalNAc6S(b1-4)GlcNAc
In short: as §1

Glc(a1-4)Glc = target: Glc(a1-4)Glc
In short: as §1

[7] = target: Glc(a1-4)Glc(a1-4)Glc(a1-4)Glc
In short: as §1

Glc(a1-6)Glc(a1-6)Glc = target: Glc(a1-6)Glc(a1-6)Glc
In short: as §1

[8] = target: Glc(a1-6)Glc(a1-6)Glc(a1-6)Glc
In short: as §1

Glc(b1-4)Glc = target: Glc(b1-4)Glc
In short: as §1

Glc(b1-6)Glc = target: Glc(b1-6)Glc
In short: as §1

GlcA(b1-3)Gal = target: GlcA(b1-3)Gal
In short: as §1

GlcA(b1-3)GlcNAc = target: GlcA(b1-3)GlcNAc
In short: as §1

GlcA(b1-6)Gal = target: GlcA(b1-6)Gal
In short: as §1

[9] = target: GlcNAc(a1-3)Gal(b1-4)GlcNAc
In short: as §1

[10] = target: GlcNAc(a1-4)Gal(b1-3)GlcNAc
In short: as §1

[11] = target: GlcNAc(a1-4)Gal(b1-4)GalNAc
In short: as §1

[12] = target: GlcNAc(a1-4)Gal(b1-4)GlcNAc
In short: as §1

[13] = target: GlcNAc(a1-4)Gal(b1-4)GlcNAc(b1-3)Gal(b1-4)Glc
In short: as §1

[14] = target: GlcNAc(a1-4)Gal(b1-4)GlcNAc(b1-3)Gal(b1-4)GlcNAc
In short: as §1

[15] = target: GlcNAc(a1-4)Gal(b1-4)GlcNAc(b1-3)Gal(b1-4)GlcNAc(b1-3)Gal(b1-4)GlcNAc
In short: as §1

[16] = target: GlcNAc(a1-4)Gal(b1-4)GlcNAc(b1-3)Gal(b1-4)[Fuc(a1-3)]GlcNAc(b1-3)Gal(b1-4)[Fuc(a1-3)]GlcNAc
In short: as §1

[17] = target: GlcNAc(a1-6)Gal(b1-4)GlcNAc
In short: as §1

[18] = target: GlcNAc(b1-2)Gal(b1-3)GalNAc
In short: as §1

[19] = target: GlcNAc(b1-2)Man(a1-3)[GlcNAc(b1-2)Man(a1-6)]Man(b1-4)GlcNAc(b1-4)GlcNAc
In short: as §1

[20] = target: GlcNAc(b1-2)Man(a1-3)[GlcNAc(b1-2)Man(a1-6)]Man(b1-4)GlcNAc(b1-4)[Fuc(a1-6)]GlcNAc
In short: as §1

[21] = target: GlcNAc(b1-2)Man(a1-3)[GlcNAc(b1-4)][GlcNAc(b1-2)Man(a1-6)]Man(b1-4)GlcNAc(b1-4)GlcNAc
In short: as §1

[22] = target: GlcNAc(b1-2)[GlcNAc(b1-4)]Man(a1-3)[GlcNAc(b1-2)Man(a1-6)]Man(b1-4)GlcNAc(b1-4)GlcNAc
In short: as §1

[23] = target: GlcNAc(b1-2)[GlcNAc(b1-4)]Man(a1-3)[GlcNAc(b1-4)][GlcNAc(b1-2)Man(a1-6)]Man(b1-4)GlcNAc(b1-4)GlcNAc
In short: as §1

[24] = target: GlcNAc(b1-2)[GlcNAc(b1-4)]Man(a1-3)[GlcNAc(b1-4)][GlcNAc(b1-2)[GlcNAc(b1-6)]Man(a1-6)]Man(b1-4)GlcNAc(b1-4)GlcNAc
In short: as §1

[25] = target: GlcNAc(b1-2)[GlcNAc(b1-4)]Man(a1-3)[GlcNAc(b1-4)][GlcNAc(b1-2)[GlcNAc(b1-6)]Man(a1-6)]Man(b1-4)GlcNAc(b1-4)[Fuc(a1-6)]GlcNAc
In short: as §1

[26] = target: GlcNAc(b1-2)[GlcNAc(b1-6)]Man(a1-6)[GlcNAc(b1-2)Man(a1-3)]Man(b1-4)GlcNAc(b1-4)GlcNAc
In short: as §1

[27] = target: GlcNAc(b1-2)[GlcNAc(b1-6)]Man(a1-6)[GlcNAc(b1-2)Man(a1-3)]Man(b1-4)GlcNAc(b1-4)[Fuc(a1-6)]GlcNAc
In short: as §1

[28] = target: GlcNAc(b1-2)[GlcNAc(b1-6)]Man(a1-6)[GlcNAc(b1-2)Man(a1-3)][GlcNAc(b1-4)]Man(b1-4)GlcNAc(b1-4)GlcNAc
In short: as §1

GlcNAc(b1-3)Gal = target: GlcNAc(b1-3)Gal
In short: as §1

B1: PitA (Streptococcus oralis), G3F8D8 (protein)
chain: MNIRFDFKKVQIIARRLVTLLAILFLCAPISLLNADSTTEPQTTLHKTITPISGQDDKYELSLDITSKLGTETQTDPLDVVLVADLSGSMQNQDVQSFDGRTISRIDALKNTLRGTNGRKGLIDTILSNSNNRLSMVGFGGKIDNKKVDQYWDGNKWRLFRPYWPYERMTKYYDGVSPWDDANTILGWSNNARAAKTAVYNMSIAGGNSIGTESGIGTGTNIGAGLTLANQLMGSARSNAKKVVILLSDGFANMVYDANGYTIYNYNNEDPNIETAPQWFWDRLNNNLNSLSYSLAPTLDGFYSIKFRYSNNVDSITSLQYYMRQHNASIPNEIFSANDEDQLRDSFKDITDKILPLGIHHVSIKDVLSKYVQLLPNGSSEFRVVKEKDGSSEILIENQVTFDTKTTSEGLVEVTAKFSPNYSLEDGARYVLKFTVTSSQEALDAIAGDKKLEAGDAEGSDVNKLYSNKGASVTYSYGIGNSQTKTKEYSDNPTFKPSDPLTVPVEVEWQGVTGARTVITADQPSNVELKLVQKNKNGGSDNQDYRKTNVNVSKNVSNETRNFEKVAKGYQYDLIAPDVPAFTKEIKNVGTESKPSFKVIYKQLPSLTIKKVLEAENNLNKEFRIKVKLTSPDSKPLNGTFGEITVVNGEAEIRVEKRKRWEGILSYLPRGTHYKVEEEAASTNGYHVTYENQEGDLNKDETSIVTNHKLPSLSVTKKVTGVFANLLKSFKITINIRDAQNSPLNGTYTATVNNKRTPLQFTNGRASIDLNKDQTIKIYGLPLDSHYTVEEESNSSRGYQVSYENQEGKLDGDKSATVTNNKNSVPETGVDFLSSTLMLGIILPLGGIFFTILLGYLVVHRRK
- glycan array binding signal (z-score) (Gal3S4S(b1-4)GlcNAc): -0.651
- glycan array binding signal (z-score) (Gal3S6S(b1-4)GlcNAc): -0.371
- glycan array binding signal (z-score) (Gal3S6S(b1-4)GlcNAc6S): -0.354
- glycan array binding signal (z-score) (Gal4S(b1-4)GlcNAc): -0.568
- glycan array binding signal (z-score) (Gal4S6S(b1-4)GlcNAc): 0.317
- glycan array binding signal (z-score) (Gal6P(b1-4)GlcNAc): -0.275
- glycan array binding signal (z-score) (Gal6S(b1-3)GlcNAc): -0.368
- glycan array binding signal (z-score) (Gal6S(b1-3)GlcNAc6S): 1.48
- glycan array binding signal (z-score) (Gal6S(b1-4)Glc): -0.151
- glycan array binding signal (z-score) (Gal6S(b1-4)Glc6S): 0.39
- glycan array binding signal (z-score) (Gal6S(b1-4)GlcNAc): -0.419
- glycan array binding signal (z-score) (Gal6S(b1-4)GlcNAc6S): 0.441
- glycan array binding signal (z-score) (GalNAc(a1-3)Gal): 0.065
- glycan array binding signal (z-score) (GalNAc(a1-3)GalNAc): -0.516
- glycan array binding signal (z-score) [1]: -0.395
- glycan array binding signal (z-score) [2]: -0.47
- glycan array binding signal (z-score) (GalNAc(b1-3)Gal): -0.695
- glycan array binding signal (z-score) [3]: -0.339
- glycan array binding signal (z-score) [4]: 0.654
- glycan array binding signal (z-score) [5]: -0.44
- glycan array binding signal (z-score) (GalNAc(b1-3)GalNAc): -0.488
- glycan array binding signal (z-score) (GalNAc(b1-4)Gal(b1-4)Glc): 0.365
- glycan array binding signal (z-score) (GalNAc(b1-4)GlcNAc): -0.306
- glycan array binding signal (z-score) [6]: -0.627
- glycan array binding signal (z-score) (GalNAc(b1-4)GlcNAc6S): -0.446
- glycan array binding signal (z-score) (GalNAc(b1-6)GalNAc): -0.59
- glycan array binding signal (z-score) (GalNAc3S(b1-4)GlcNAc): -0.562
- glycan array binding signal (z-score) (GalNAc3S(b1-4)GlcNAc3S): -0.375
- glycan array binding signal (z-score) (GalNAc4S6S(b1-4)GlcNAc): -0.499
- glycan array binding signal (z-score) (GalNAc6S(b1-4)GlcNAc): 0.019
- glycan array binding signal (z-score) (Glc(a1-4)Glc): 0.019
- glycan array binding signal (z-score) [7]: 0.317
- glycan array binding signal (z-score) (Glc(a1-6)Glc(a1-6)Glc): -0.253
- glycan array binding signal (z-score) [8]: 0.864
- glycan array binding signal (z-score) (Glc(b1-4)Glc): -0.186
- glycan array binding signal (z-score) (Glc(b1-6)Glc): 0.049
- glycan array binding signal (z-score) (GlcA(b1-3)Gal): 0.067
- glycan array binding signal (z-score) (GlcA(b1-3)GlcNAc): -0.46
- glycan array binding signal (z-score) (GlcA(b1-6)Gal): -0.511
- glycan array binding signal (z-score) [9]: -0.268
- glycan array binding signal (z-score) [10]: -0.623
- glycan array binding signal (z-score) [11]: 5.14
- glycan array binding signal (z-score) [12]: -0.543
- glycan array binding signal (z-score) [13]: 1.05
- glycan array binding signal (z-score) [14]: -0.052
- glycan array binding signal (z-score) [15]: -0.541
- glycan array binding signal (z-score) [16]: 3.75
- glycan array binding signal (z-score) [17]: -0.566
- glycan array binding signal (z-score) [18]: -0.34
- glycan array binding signal (z-score) [19]: -0.254
- glycan array binding signal (z-score) [20]: -0.417
- glycan array binding signal (z-score) [21]: -0.119
- glycan array binding signal (z-score) [22]: -0.44
- glycan array binding signal (z-score) [23]: -0.28
- glycan array binding signal (z-score) [24]: -0.52
- glycan array binding signal (z-score) [25]: -0.565
- glycan array binding signal (z-score) [26]: -0.219
- glycan array binding signal (z-score) [27]: 0.736
- glycan array binding signal (z-score) [28]: -0.462
- glycan array binding signal (z-score) (GlcNAc(b1-3)Gal): -0.033
